{"source": "patent US6034064A", "about": "“Peptides and therapeutic agent for autoimmune diseases containing the same” (Hoechst Pharmaceuticals & Chemicals K.K., priority 1995, dated 2000)", "system": "rat carrageenin-induced paw edema model", "protocol": "To physiological saline, λ-carrageenin (\"PICNIN-A\", Zushi Chemical Co.) was added at the final concentration of 1 w/v %, and it was heated in a boiling water bath to dissolve I-carrageenin completely. The resulting solution was then allowed to stand at room temperature. Before the experiment, the solution was dissolved completely by heating in a boiling water bath and was allowed to stand in a water bath of about 60iC until administration. Immediately after 50 μl of Peptide (I) of the present invention or physiological saline (non-administered group) were administered subcutaneously to the left leg of Splague-Dawley rats (6 weeks old, male), 50 μl of the 1% carrageenin solution were administered to the same site. The paw volume was measured using plethysmometer (product of BM Instrument Co.) every one hour for 5 hours after carrageenin administration. Incidentally, each group consisted of 10 rats and Dunnets two tail method was used for statistical analysis.", "note": "Where two headings read alike, the source gives them in different places. No end group written: not given here."}
{"sequence": "AKLTFGKGT [Peptide (I), Ala-Lys-Leu-Thr-Phe-Gly-Lys-Gly-Thr]", "values": [{"measurement": "onset of edema", "setting": "10 μg/site, five hours after carrageenin", "result": "tendency to suppress the edema onset was observed"}, {"measurement": "onset of edema", "setting": "10 μg/site, two hours on and after carrageenin, significant difference of 5%", "result": "suppressed"}, {"measurement": "onset of edema", "setting": "one hour after the administration of carrageenin", "result": "tended to be suppressed"}]}
